No constants are given. Whether binding was seen depends on the method and setting. Binding seen in cells or lysates may run through a third protein. Some entries that bind do so weakly or less than the wild type. For part of these data: Sequences can lack the tags named with a protein.

The target in experiment [1] is T1, Myc–Cep85 mutant containing amino acids 257–433 alone (human) (UniProt Q6P2H3).
T1 sequence: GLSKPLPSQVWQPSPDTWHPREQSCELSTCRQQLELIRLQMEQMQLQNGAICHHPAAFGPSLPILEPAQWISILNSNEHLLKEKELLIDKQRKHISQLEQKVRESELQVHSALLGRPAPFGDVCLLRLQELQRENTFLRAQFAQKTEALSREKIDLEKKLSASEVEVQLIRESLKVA
Put plainly: co-IP; Myc–Cep85 constructs and HA–Nek2A constructs co-expressed in HEK293T cells; lysis in 50 mM Tris-HCl pH 7.4, 150 mM NaCl, 1 mM EDTA, 0.5% NP-40; antibody 2 h at 4°C, Protein A/G PLUS-Agarose; western blotting.

In the next experiment the target is T2, Myc-tagged Cep85 (human) (UniProt Q6P2H3).
T2 sequence: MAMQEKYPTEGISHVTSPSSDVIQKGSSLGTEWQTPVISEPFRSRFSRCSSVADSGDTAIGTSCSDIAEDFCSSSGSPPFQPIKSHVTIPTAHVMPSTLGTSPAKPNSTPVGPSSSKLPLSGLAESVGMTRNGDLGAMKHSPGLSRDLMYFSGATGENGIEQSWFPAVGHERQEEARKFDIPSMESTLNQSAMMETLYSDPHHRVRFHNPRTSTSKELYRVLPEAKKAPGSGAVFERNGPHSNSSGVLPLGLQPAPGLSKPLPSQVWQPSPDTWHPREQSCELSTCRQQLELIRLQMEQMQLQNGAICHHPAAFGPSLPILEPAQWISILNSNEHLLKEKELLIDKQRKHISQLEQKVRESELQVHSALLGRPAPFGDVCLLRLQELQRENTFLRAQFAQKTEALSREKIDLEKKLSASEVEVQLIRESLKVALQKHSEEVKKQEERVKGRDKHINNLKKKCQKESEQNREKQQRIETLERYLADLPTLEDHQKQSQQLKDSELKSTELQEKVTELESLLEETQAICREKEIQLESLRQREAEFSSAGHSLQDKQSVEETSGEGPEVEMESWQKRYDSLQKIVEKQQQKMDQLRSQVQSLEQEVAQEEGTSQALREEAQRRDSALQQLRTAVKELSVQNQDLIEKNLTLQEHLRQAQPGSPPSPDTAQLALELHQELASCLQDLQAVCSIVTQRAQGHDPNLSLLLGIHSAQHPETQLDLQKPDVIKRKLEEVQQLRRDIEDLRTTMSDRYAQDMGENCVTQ
Described as above.

Experiment [2] deals with T3, Myc–Cep85 internal deletion mutant M23 (human) (UniProt Q6P2H3).
T3 sequence: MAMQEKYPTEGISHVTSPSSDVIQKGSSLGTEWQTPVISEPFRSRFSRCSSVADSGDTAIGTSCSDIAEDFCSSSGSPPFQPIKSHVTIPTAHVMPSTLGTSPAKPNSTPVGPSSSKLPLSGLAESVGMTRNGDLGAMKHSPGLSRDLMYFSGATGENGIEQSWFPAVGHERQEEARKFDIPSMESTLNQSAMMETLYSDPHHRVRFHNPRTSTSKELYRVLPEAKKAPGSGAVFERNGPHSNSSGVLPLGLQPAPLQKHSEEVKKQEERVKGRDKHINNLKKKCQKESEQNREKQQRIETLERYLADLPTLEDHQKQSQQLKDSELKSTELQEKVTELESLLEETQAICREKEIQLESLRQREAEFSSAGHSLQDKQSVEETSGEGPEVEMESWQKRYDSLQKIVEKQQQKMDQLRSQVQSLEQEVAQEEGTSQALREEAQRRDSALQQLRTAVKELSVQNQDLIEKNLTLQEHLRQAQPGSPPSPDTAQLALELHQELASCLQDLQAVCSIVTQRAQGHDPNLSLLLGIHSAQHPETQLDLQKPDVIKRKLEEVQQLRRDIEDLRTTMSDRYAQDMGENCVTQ
Described as above.

Experiment [3] has as its target T4, GST fusion Cep85 protein (human) (UniProt Q6P2H3).
T4 sequence: T2 sequence
Kind of experiment: pull-down; GST–Cep85 expressed in and purified from E. coli as bait; HA–Nek2A overexpressed in HEK293T cells; only the target purified.

Experiment [4] addresses T5, Cep85, endogenous in U2OS (human (endogenous in U2OS)) (UniProt Q6P2H3).
T5 sequence: T2 sequence
Kind of experiment: co-IP; endogenous Cep85 in U2OS cell lysate immunoprecipitated with anti-Cep85 antibody; Nek2A detected with anti-Nek2A antibody.

The target in experiment [5] is T6, centrosomal protein 85 kDa (Cep85), endogenous in HEK293T (human (endogenous in HEK293T)) (UniProt Q6P2H3).
T6 sequence: T2 sequence
Put plainly: co-IP; endogenous Cep85 in HEK293T cell lysate immunoprecipitated with anti-Cep85 antibody; Nek2A detected with anti-Nek2A antibody.

B1: HA-tagged Nek2A (enzyme, UniProt P51955-1 1-445)
chain: MPSRAEDYEVLYTIGTGSYGRCQKIRRKSDGKILVWKELDYGSMTEAEKQMLVSEVNLLRELKHPNIVRYYDRIIDRTNTTLYIVMEYCEGGDLASVITKGTKERQYLDEEFVLRVMTQLTLALKECHRRSDGGHTVLHRDLKPANVFLDGKQNVKLGDFGLARILNHDTSFAKTFVGTPYYMSPEQMNRMSYNEKSDIWSLGCLLYELCALMPPFTAFSQKELAGKIREGKFRRIPYRYSDELNEIITRMLNLKDYHRPSVEEILENPLIADLVADEQRRNLERRGRQLGEPEKSQDSSPVLSELKLKEIQLQERERALKAREERLEQKEQELCVRERLAEDKLARAENLLKNYSLLKERKFLSLASNPELLNLPSSVIKKKVHFSGESKENIMRSENSESQLTSKSKCKDLKKRLHAAQLRAQALSDIEKNYQLKSRQILGMR
B1: the binding entry in experiment [1] is given as “binds”; with Myc-tagged Cep85 (human), “binds”; in experiment [2], “no binding”; in experiment [3], “binds”.

B2: Nek2A, endogenous in U2OS (enzyme, UniProt P51955-1 1-445)
chain: B1 chain
As to B2, the binding entry in experiment [4] is listed as “binds”.

B3: Nek2A, endogenous in HEK293T (enzyme, UniProt P51955-1 1-445)
chain: B1 chain
As to B3, the binding result in experiment [5] was “binds”.

For the origin of these results see PMC4582193.
